# The list shows a part of the results.
# B1: FimA-N1 (Actinomyces oris) (protein)
# chain: MHHHHHHSSGVDLGTENLYFQSNATETPNYGNIKTDATGSLVIHKHLTGGGKDIGTPTGTAQNADDKGPAVEGVVFTAYPITDINLKDPAGWDTISNLSRTGVPDSACANPAAPTLGAHQFGTPKVSPATTKEGLATITEMPVQAYLVCETTTPGDIVQKAKPFVVTIPHPNTAAGADGQWIYDVNVYPKNEAIDVDKTIQAQK
# Columns and labels:
# Assay in all cases: glycan array binding signal (z-score within array); higher = stronger binding
# Conditions in all cases: glycan notation: IUPAC condensed, linker removed
# GlcNAc(b1-3)Gal(b1-4)Glc = target: GlcNAc(b1-3)Gal(b1-4)Glc
# Procedure, shortened: (§1)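 Negative Z-scores can be read as non-binding. The Z-score is calculated within each array and then averaged across arrays of one protein sequence at different concentrations or buffers and across linkers. Arrays, 3228 in all, were curated from the Consortium for Functional Glycomics database and kept only where the protein sequence was available.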
# [1] = target: GlcNAc(b1-3)Gal(b1-4)GlcNAc
# Procedure, shortened: as §1
# [2] = target: GlcNAc(b1-3)Gal(b1-4)GlcNAc(b1-2)Man(a1-3)[GlcNAc(b1-3)Gal(b1-4)GlcNAc(b1-2)Man(a1-6)]Man(b1-4)GlcNAc(b1-4)GlcNAc
# Procedure, shortened: as §1
# [3] = target: GlcNAc(b1-3)Gal(b1-4)GlcNAc(b1-2)Man(a1-3)[GlcNAc(b1-3)Gal(b1-4)GlcNAc(b1-2)Man(a1-6)]Man(b1-4)GlcNAc(b1-4)[Fuc(a1-6)]GlcNAc
# Procedure, shortened: as §1
# [4] = target: GlcNAc(b1-3)Gal(b1-4)GlcNAc(b1-2)[GlcNAc(b1-3)Gal(b1-4)GlcNAc(b1-6)]Man(a1-6)[GlcNAc(b1-3)Gal(b1-4)GlcNAc(b1-2)Man(a1-3)]Man(b1-4)GlcNAc(b1-4)GlcNAc
# Procedure, shortened: as §1
# [5] = target: GlcNAc(b1-3)Gal(b1-4)GlcNAc(b1-3)Gal(b1-4)GlcNAc
# Procedure, shortened: as §1
# [6] = target: GlcNAc(b1-3)Gal(b1-4)GlcNAc(b1-3)Gal(b1-4)GlcNAc(b1-2)Man(a1-3)[GlcNAc(b1-3)Gal(b1-4)GlcNAc(b1-3)Gal(b1-4)GlcNAc(b1-2)Man(a1-6)]Man(b1-4)GlcNAc(b1-4)GlcNAc
# Procedure, shortened: as §1
# [7] = target: GlcNAc(b1-3)Gal(b1-4)GlcNAc(b1-3)Gal(b1-4)GlcNAc(b1-2)Man(a1-3)[GlcNAc(b1-3)Gal(b1-4)GlcNAc(b1-3)Gal(b1-4)GlcNAc(b1-2)Man(a1-6)]Man(b1-4)GlcNAc(b1-4)[Fuc(a1-6)]GlcNAc
# Procedure, shortened: as §1
# [8] = target: GlcNAc(b1-3)Gal(b1-4)GlcNAc(b1-3)Gal(b1-4)GlcNAc(b1-2)[GlcNAc(b1-3)Gal(b1-4)GlcNAc(b1-3)Gal(b1-4)GlcNAc(b1-6)]Man(a1-6)[GlcNAc(b1-3)Gal(b1-4)GlcNAc(b1-3)Gal(b1-4)GlcNAc(b1-2)Man(a1-3)]Man(b1-4)GlcNAc(b1-4)[Fuc(a1-6)]GlcNAc
# Procedure, shortened: as §1
# [9] = target: GlcNAc(b1-3)Gal(b1-4)GlcNAc(b1-3)Gal(b1-4)GlcNAc(b1-3)Gal(b1-4)GlcNAc(b1-2)Man(a1-3)[GlcNAc(b1-3)Gal(b1-4)GlcNAc(b1-3)Gal(b1-4)GlcNAc(b1-3)Gal(b1-4)GlcNAc(b1-2)Man(a1-6)]Man(b1-4)GlcNAc(b1-4)GlcNAc
# Procedure, shortened: as §1
# [10] = target: GlcNAc(b1-3)Gal(b1-4)GlcNAc(b1-3)Gal(b1-4)GlcNAc(b1-3)Gal(b1-4)GlcNAc(b1-2)Man(a1-3)[GlcNAc(b1-3)Gal(b1-4)GlcNAc(b1-3)Gal(b1-4)GlcNAc(b1-3)Gal(b1-4)GlcNAc(b1-2)Man(a1-6)]Man(b1-4)GlcNAc(b1-4)[Fuc(a1-6)]GlcNAc
# Procedure, shortened: as §1
# [11] = target: GlcNAc(b1-3)Gal(b1-4)GlcNAc(b1-3)Gal(b1-4)GlcNAc(b1-3)Gal(b1-4)GlcNAc(b1-2)[GlcNAc(b1-3)Gal(b1-4)GlcNAc(b1-3)Gal(b1-4)GlcNAc(b1-3)Gal(b1-4)GlcNAc(b1-6)]Man(a1-6)[GlcNAc(b1-3)Gal(b1-4)GlcNAc(b1-3)Gal(b1-4)GlcNAc(b1-3)Gal(b1-4)GlcNAc(b1-2)Man(a1-3)]Man(b1-4)GlcNAc(b1-4)[Fuc(a1-6)]GlcNAc
# Procedure, shortened: as §1
# [12] = target: GlcNAc(b1-3)Gal(b1-4)GlcNAc(b1-3)Gal(b1-4)GlcNAc(b1-3)Gal(b1-4)GlcNAc(b1-3)Gal(b1-4)GlcNAc(b1-2)Man(a1-3)[GlcNAc(b1-3)Gal(b1-4)GlcNAc(b1-3)Gal(b1-4)GlcNAc(b1-3)Gal(b1-4)GlcNAc(b1-3)Gal(b1-4)GlcNAc(b1-2)Man(a1-6)]Man(b1-4)GlcNAc(b1-4)GlcNAc
# Procedure, shortened: as §1
# [13] = target: GlcNAc(b1-3)Gal(b1-4)GlcNAc(b1-3)Gal(b1-4)GlcNAc(b1-3)Gal(b1-4)GlcNAc(b1-3)Gal(b1-4)GlcNAc(b1-2)Man(a1-3)[GlcNAc(b1-3)Gal(b1-4)GlcNAc(b1-3)Gal(b1-4)GlcNAc(b1-3)Gal(b1-4)GlcNAc(b1-3)Gal(b1-4)GlcNAc(b1-2)Man(a1-6)]Man(b1-4)GlcNAc(b1-4)[Fuc(a1-6)]GlcNAc
# Procedure, shortened: as §1
# [14] = target: GlcNAc(b1-3)Gal(b1-4)GlcNAc(b1-3)Gal(b1-4)GlcNAc(b1-3)Gal(b1-4)GlcNAc(b1-3)Gal(b1-4)GlcNAc(b1-2)[GlcNAc(b1-3)Gal(b1-4)GlcNAc(b1-3)Gal(b1-4)GlcNAc(b1-3)Gal(b1-4)GlcNAc(b1-3)Gal(b1-4)GlcNAc(b1-6)]Man(a1-6)[GlcNAc(b1-3)Gal(b1-4)GlcNAc(b1-3)Gal(b1-4)GlcNAc(b1-3)Gal(b1-4)GlcNAc(b1-3)Gal(b1-4)GlcNAc(b1-2)Man(a1-3)]Man(b1-4)GlcNAc(b1-4)[Fuc(a1-6)]GlcNAc
# Procedure, shortened: as §1
# [15] = target: GlcNAc(b1-3)Gal(b1-4)GlcNAc(b1-3)Gal(b1-4)GlcNAc(b1-3)GalNAc
# Procedure, shortened: as §1
# [16] = target: GlcNAc(b1-3)Gal(b1-4)GlcNAc(b1-3)GalNAc
# Procedure, shortened: as §1
# [17] = target: GlcNAc(b1-3)Gal(b1-4)GlcNAc(b1-3)[GlcNAc(b1-3)Gal(b1-4)GlcNAc(b1-3)]GalNAc
# Procedure, shortened: as §1
# [18] = target: GlcNAc(b1-3)Gal(b1-4)GlcNAc(b1-6)[Gal(b1-3)]GalNAc
# Procedure, shortened: as §1
# [19] = target: GlcNAc(b1-3)Gal(b1-4)GlcNAc(b1-6)[GlcNAc(b1-3)Gal(b1-3)]GalNAc
# Procedure, shortened: as §1
# [20] = target: GlcNAc(b1-3)Gal(b1-4)GlcNAc(b1-6)[GlcNAc(b1-3)]Gal(b1-4)GlcNAc
# Procedure, shortened: as §1
# GlcNAc(b1-3)GalNAc = target: GlcNAc(b1-3)GalNAc
# Procedure, shortened: as §1
# GlcNAc(b1-3)Man = target: GlcNAc(b1-3)Man
# Procedure, shortened: as §1
# [21] = target: GlcNAc(b1-3)[GlcNAc(b1-4)][GlcNAc(b1-6)]GlcNAc
# Procedure, shortened: as §1
# [22] = target: GlcNAc(b1-3)[GlcNAc(b1-6)]Gal(b1-4)GlcNAc
# Procedure, shortened: as §1
# [23] = target: GlcNAc(b1-3)[GlcNAc(b1-6)]GalNAc
# Procedure, shortened: as §1
# [24] = target: GlcNAc(b1-4)Gal(b1-4)GlcNAc
# Procedure, shortened: as §1
# GlcNAc(b1-4)GlcNAc = target: GlcNAc(b1-4)GlcNAc
# Procedure, shortened: as §1
# [25] = target: GlcNAc(b1-4)GlcNAc(b1-4)GlcNAc
# Procedure, shortened: as §1
# [26] = target: GlcNAc(b1-4)GlcNAc(b1-4)GlcNAc(b1-4)GlcNAc(b1-4)GlcNAc
# Procedure, shortened: as §1
# [27] = target: GlcNAc(b1-4)GlcNAc(b1-4)GlcNAc(b1-4)GlcNAc(b1-4)GlcNAc(b1-4)GlcNAc
# Procedure, shortened: as §1
# [28] = target: GlcNAc(b1-4)[GlcNAc(b1-6)]GalNAc
# Procedure, shortened: as §1
# [29] = target: GlcNAc(b1-6)Gal(b1-4)GlcNAc
# Procedure, shortened: as §1
# GlcNAc(b1-6)GalNAc = target: GlcNAc(b1-6)GalNAc
# Procedure, shortened: as §1
# [30] = target: GlcNAc6S(b1-3)Gal(b1-4)GlcNAc
# Procedure, shortened: as §1
# Kdn(a2-3)Gal(b1-3)GalNAc = target: Kdn(a2-3)Gal(b1-3)GalNAc
# Procedure, shortened: as §1
# Kdn(a2-3)Gal(b1-3)GlcNAc = target: Kdn(a2-3)Gal(b1-3)GlcNAc
# Procedure, shortened: as §1
# Kdn(a2-3)Gal(b1-4)Glc = target: Kdn(a2-3)Gal(b1-4)Glc
# Procedure, shortened: as §1
# Kdn(a2-3)Gal(b1-4)GlcNAc = target: Kdn(a2-3)Gal(b1-4)GlcNAc
# Procedure, shortened: as §1
# [31] = target: Kdn(a2-3)Gal(b1-4)[Fuc(a1-3)]GlcNAc
# Procedure, shortened: as §1
# Kdn(a2-6)Gal(b1-4)GlcNAc = target: Kdn(a2-6)Gal(b1-4)GlcNAc
# Procedure, shortened: as §1
# [32] = target: Man(a1-2)Man(a1-2)Man(a1-3)Man
# Procedure, shortened: as §1
# [33] = target: Man(a1-2)Man(a1-2)Man(a1-6)[Man(a1-3)]Man
# Procedure, shortened: as §1
# Man(a1-2)Man(a1-3)Man = target: Man(a1-2)Man(a1-3)Man
# Procedure, shortened: as §1
# [34] = target: Man(a1-2)Man(a1-3)[Man(a1-2)Man(a1-6)]Man
# Procedure, shortened: as §1
binder,measurement,setting,value
B1,glycan array binding signal (z-score),GlcNAc(b1-3)Gal(b1-4)Glc,-0.05
same,glycan array binding signal (z-score),[1],-0.34
same,glycan array binding signal (z-score),[2],0.044
same,glycan array binding signal (z-score),[3],-0.002
same,glycan array binding signal (z-score),[4],-0.318
same,glycan array binding signal (z-score),[5],-0.033
same,glycan array binding signal (z-score),[6],-0.187
same,glycan array binding signal (z-score),[7],-0.028
same,glycan array binding signal (z-score),[8],-0.229
same,glycan array binding signal (z-score),[9],-0.25
same,glycan array binding signal (z-score),[10],0.187
same,glycan array binding signal (z-score),[11],-0.242
same,glycan array binding signal (z-score),[12],0.054
same,glycan array binding signal (z-score),[13],-0.204
same,glycan array binding signal (z-score),[14],-0.026
same,glycan array binding signal (z-score),[15],-0.174
same,glycan array binding signal (z-score),[16],-0.212
same,glycan array binding signal (z-score),[17],-0.067
same,glycan array binding signal (z-score),[18],-0.387
same,glycan array binding signal (z-score),[19],-0.187
same,glycan array binding signal (z-score),[20],-0.189
same,glycan array binding signal (z-score),GlcNAc(b1-3)GalNAc,-0.166
same,glycan array binding signal (z-score),GlcNAc(b1-3)Man,-0.364
same,glycan array binding signal (z-score),[21],0.063
same,glycan array binding signal (z-score),[22],-0.464
same,glycan array binding signal (z-score),[23],-0.256
same,glycan array binding signal (z-score),[24],-0.053
same,glycan array binding signal (z-score),GlcNAc(b1-4)GlcNAc,-0.235
same,glycan array binding signal (z-score),[25],-0.134
same,glycan array binding signal (z-score),[26],-0.228
same,glycan array binding signal (z-score),[27],0.163
same,glycan array binding signal (z-score),[28],-0.239
same,glycan array binding signal (z-score),[29],-0.334
same,glycan array binding signal (z-score),GlcNAc(b1-6)GalNAc,-0.13
same,glycan array binding signal (z-score),[30],-0.412
same,glycan array binding signal (z-score),Kdn(a2-3)Gal(b1-3)GalNAc,-0.338
same,glycan array binding signal (z-score),Kdn(a2-3)Gal(b1-3)GlcNAc,-0.396
same,glycan array binding signal (z-score),Kdn(a2-3)Gal(b1-4)Glc,0.117
same,glycan array binding signal (z-score),Kdn(a2-3)Gal(b1-4)GlcNAc,-0.378
same,glycan array binding signal (z-score),[31],0.321
same,glycan array binding signal (z-score),Kdn(a2-6)Gal(b1-4)GlcNAc,0.491
same,glycan array binding signal (z-score),[32],0.382
same,glycan array binding signal (z-score),[33],0.038
same,glycan array binding signal (z-score),Man(a1-2)Man(a1-3)Man,-0.084
same,glycan array binding signal (z-score),[34],-0.309
